Results as given in the supplement of paper PMC10369915.
The other results are listed elsewhere or left out. Cut-off read from the data, not from the text of the source: active = 3.2 or more and inactive = the rest. Most of these values are background signal.

Key:
Test in all cases: enrichment score (SH2-bound / input frequency) (ratio); bacterial display of known human phosphotyrosine sites (pTyr-Var adds point mutants) read by sequencing; higher = stronger binding; tyrosines were phosphorylated by kinases first
Settings in all cases: peptide library: pTyr-Var
SHP2 C-SH2 domain E139D = target: SHP2 C-SH2 domain E139D
[1] = target: SHP2 C-SH2 domain wild-type
SHP2 N-SH2 domain L43F = target: SHP2 N-SH2 domain L43F
SHP2 N-SH2 domain T42A = target: SHP2 N-SH2 domain T42A
SHP2 N-SH2 domain T52S = target: SHP2 N-SH2 domain T52S
[2] = target: SHP2 N-SH2 domain wild-type

Measured: enrichment score
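Note: displayed peptides selected on beads carrying the immobilized SH2 domain, with library peptides lacking any tyrosine serving as negative controls.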

QSRSPYSSRHS [CDK13_Y415_R410Q]
inactive: SHP2 C-SH2 domain E139D 0.632 | [1] 0.63 | SHP2 N-SH2 domain L43F 0.402 | SHP2 N-SH2 domain T42A 0.335 | SHP2 N-SH2 domain T52S 0.529 | [2] 0.333

IGEGTYGQVFK [CDK13_Y716_YF]
inactive: SHP2 C-SH2 domain E139D 0.786 | [1] 0.688 | SHP2 N-SH2 domain L43F 0.756 | SHP2 N-SH2 domain T42A 0.675 | SHP2 N-SH2 domain T52S 0.78 | [2] 0.864

TYGVAYRAKDK [CDK11B_Y453_V452A]
inactive: SHP2 C-SH2 domain E139D 0.677 | [1] 0.59 | SHP2 N-SH2 domain L43F 0.428 | SHP2 N-SH2 domain T42A 0.396 | SHP2 N-SH2 domain T52S 0.697 | [2] 0.325

VATRWYRSPEL [CDKL5_Y177]
inactive: SHP2 C-SH2 domain E139D 0.913 | [1] 0.935 | SHP2 N-SH2 domain L43F 0.791 | SHP2 N-SH2 domain T42A 0.838 | SHP2 N-SH2 domain T52S 0.823 | [2] 1.1

IGEGTYGVVFK [CDK2_Y15_YF]
inactive: SHP2 C-SH2 domain E139D 1.17 | [1] 1.03 | SHP2 N-SH2 domain L43F 0.795 | SHP2 N-SH2 domain T42A 1.04 | SHP2 N-SH2 domain T52S 0.987 | [2] 1.55

TFGVLYKARNK [CDK2_Y19_V18L_YF]
inactive: SHP2 C-SH2 domain E139D 0.531 | [1] 0.42 | SHP2 N-SH2 domain L43F 0.396 | SHP2 N-SH2 domain T42A 0.538 | SHP2 N-SH2 domain T52S 0.423 | [2] 0.332

IEEGTYGVVFR [CDK11B_Y449_YF]
inactive: SHP2 C-SH2 domain E139D 0.944 | [1] 0.944 | SHP2 N-SH2 domain L43F 0.812 | SHP2 N-SH2 domain T42A 0.522 | SHP2 N-SH2 domain T52S 0.764 | [2] 0.829

GGSSPYSRRLA [CDK13_Y351_P356A]
inactive: SHP2 C-SH2 domain E139D 0.246 | [1] 0.229 | SHP2 N-SH2 domain L43F 0.254 | SHP2 N-SH2 domain T42A 0.245 | SHP2 N-SH2 domain T52S 0.261 | [2] 0.267

TYGVVYRAKDK [CDK11B_Y453]
inactive: SHP2 C-SH2 domain E139D 0.461 | [1] 0.393 | SHP2 N-SH2 domain L43F 0.227 | SHP2 N-SH2 domain T42A 0.427 | SHP2 N-SH2 domain T52S 0.399 | [2] 0.538

VATSWYRSPEL [CDKL5_Y177_R175S]
inactive: SHP2 C-SH2 domain E139D 1.05 | [1] 0.897 | SHP2 N-SH2 domain L43F 0.883 | SHP2 N-SH2 domain T42A 0.965 | SHP2 N-SH2 domain T52S 1.03 | [2] 1.05

IGEGTYGVVYK [CDK2_Y15]
inactive: SHP2 C-SH2 domain E139D 0.91 | [1] 0.764 | SHP2 N-SH2 domain L43F 0.713 | SHP2 N-SH2 domain T42A 0.684 | SHP2 N-SH2 domain T52S 0.885 | [2] 0.925

IGEGTYRQVFK [CDK13_Y716_G717R_YF]
inactive: SHP2 C-SH2 domain E139D 1.01 | [1] 0.791 | SHP2 N-SH2 domain L43F 0.919 | SHP2 N-SH2 domain T42A 0.771 | SHP2 N-SH2 domain T52S 0.879 | [2] 1.39

IGEGTYRTVFK [CDK5_Y15_G16R]
inactive: SHP2 C-SH2 domain E139D 0.751 | [1] 0.896 | SHP2 N-SH2 domain L43F 0.546 | SHP2 N-SH2 domain T42A 0.724 | SHP2 N-SH2 domain T52S 0.669 | [2] 0.777

IGEGTYRQVYK [CDK13_Y716_G717R]
inactive: SHP2 C-SH2 domain E139D 0.847 | [1] 0.553 | SHP2 N-SH2 domain L43F 0.591 | SHP2 N-SH2 domain T42A 0.579 | SHP2 N-SH2 domain T52S 0.772 | [2] 0.812

IGEGTYGTVFK [CDK5_Y15]
inactive: SHP2 C-SH2 domain E139D 0.672 | [1] 0.88 | SHP2 N-SH2 domain L43F 0.686 | SHP2 N-SH2 domain T42A 0.749 | SHP2 N-SH2 domain T52S 0.796 | [2] 1.1

RSRSPYSPVFR [CDK13_Y399_L403F]
inactive: SHP2 C-SH2 domain E139D 0.348 | [1] 0.348 | SHP2 N-SH2 domain L43F 0.338 | SHP2 N-SH2 domain T42A 0.381 | SHP2 N-SH2 domain T52S 0.333 | [2] 0.281

IGEGTYGQVYK [CDK13_Y716]
inactive: SHP2 C-SH2 domain E139D 1.02 | [1] 0.842 | SHP2 N-SH2 domain L43F 1.17 | SHP2 N-SH2 domain T42A 0.688 | SHP2 N-SH2 domain T52S 1.13 | [2] 0.942

IGEGTSGVVFK [CDK2_Y15_Y15S_YF]
inactive: SHP2 C-SH2 domain E139D 0.665 | [1] 0.616 | SHP2 N-SH2 domain L43F 0.495 | SHP2 N-SH2 domain T42A 0.638 | SHP2 N-SH2 domain T52S 0.57 | [2] 0.568

RSRSPYSSRHS [CDK13_Y415]
inactive: SHP2 C-SH2 domain E139D 0.255 | [1] 0.219 | SHP2 N-SH2 domain L43F 0.363 | SHP2 N-SH2 domain T42A 0.315 | SHP2 N-SH2 domain T52S 0.284 | [2] 0.145
